Values joined by “and” are separate entries in the source; they are usually repeats but may differ in a detail not shown here. Identical values can stand only once. Out of some 310,000 compounds screened, about 18,000 (5.8%) were called active. The inconclusive results got no clear call from the source; some entries with a clear call stand among them for comparison. The call rests on the fitted dose curve; in most records, active means well fitted inhibition curve with a large enough effect; inconclusive means small, poorly fitted or top-dose-only effect, or another doubt; inactive means no such curve, though single readings can be large or run the other way. A potency beside an inconclusive call is a rough fit, not a confirmed value.
Experiment: Primary qHTS for delayed death inhibitors of the malarial parasite plastid, 48 hour incubation
Conditions: P. falciparum luciferase growth in erythrocytes; series mostly up to 28.7 µM; activity change, negative = inhibition: at the top concentration
Method in brief: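 Luminescence readout; reporter = integrated firefly luciferase in P. falciparum. RBC culture at 2% hematocrit, 0.1% parasitemia final, 37 C/5% CO2; decreased signal taken as growth inhibition.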
On the % scale 0 is the no-effect control and ±100 the full control effect; potency means the concentration at half of the fitted maximal effect; tags describe the fitted curve by direction and shape.

Structure (SMILES)	Potency	activity change, negative = inhibition
O=C(CCCCCBr)N1CCC(CC2CC(c3ccc(Cl)cc3)=NO2)(C(=O)NCC2CCCCC2)CC1 (stereo not given)	inconclusive: 4.65 µM [inhibitor, partial curve, poor fit]	–
CCOC(=O)C1=C(NC(=S)NC(=O)c2ccccc2)c2ccccc2CC1C(C)C (stereo not given)	inconclusive: 18.5 µM [inhibitor, single point]	–
COc1cc(OC)cc(-c2oc(=O)c3cc(OC)c(OC)cc3c2C#CCCCO)c1	inconclusive: 11.7 µM [inhibitor, single point]	–
COc1ccc(C2=CC(c3ccc(OC)c(OC)c3)n3nnnc3N2)c(OC)c1 (stereo not given)	inconclusive: 11.7 µM [inhibitor, single point]	–
COc1ccc(OC)c(CCNC(=O)c2cccc(NC3=NC4CS(=O)(=O)CC4S3)c2)c1 (stereo not given)	–	inactive: -5.03%
O=C(N[C@@H]1CCC(=O)N(CC[C@H](Sc2ccc(Br)cc2)c2ccccc2)CC1)OCc1ccccc1	inconclusive: 5.86 µM [inhibitor, partial curve]	–
Clc1ccc(-c2c[nH]c3ccccc23)nn1	–	inactive: -50% [at 1.15 µM]
O=c1c(Cc2ccc(Cl)cc2Cl)c(O)ccn1Cc1ccc(Cl)cc1	active: 4.15 µM	–
Cc1n[nH]c(C)c1S(=O)(=O)N1CCc2ccccc21	inconclusive: 0.294 µM [inhibitor, partial curve, poor fit]	–
Cc1ccc(/C=N/NS(=O)(=O)c2ccc([N+](=O)[O-])cc2)o1	–	inactive: 9.32%
Cc1cc(C)c2nc(N3CCC(C(=O)NCC4CCCO4)CC3)sc2c1 (stereo not given)	–	inactive: 2.64%
CCOC(=O)C1(Cc2ccc(Cl)cc2)CCN(Cc2nccn2CC)CC1	inconclusive: 5.22 µM [inhibitor, partial curve]	–
Cn1c(/C=C/c2ccc(Cl)cc2Cl)c([N+](=O)[O-])c(=O)n(C)c1=O	active: 4.65 µM	–
COc1ccc(Cl)cc1S(=O)(=O)NC(C)C(=O)NCc1ccc2c(c1)OCO2 (stereo not given)	–	inactive: 6.82%
COc1ccc(N2CCN(C(=O)C3CCN(S(=O)(=O)c4c(C)noc4/C=C/N(C)C)CC3)CC2)cc1	inconclusive: 18.5 µM [inhibitor, single point]	–
O=C(/C=C/c1cccc([N+](=O)[O-])c1)NCCN1C(=O)S/C(=C\c2ccc(F)cc2)C1=O	inconclusive: 18.5 µM [inhibitor, single point]	–
COc1ccccc1C(=O)NCCC(=O)N1CCN(S(=O)(=O)c2ccccc2C(F)(F)F)CC1	inconclusive: 4.65 µM [inhibitor, partial curve, poor fit]	–
CC1CN(C2CCN(S(=O)(=O)c3ccc(F)cc3)CC2)CC(C)O1 (stereo not given)	–	inactive: -8.15%
Cc1cc(Nc2ccccc2)n2nc(C)c(-c3ccccc3)c2n1	inconclusive: 9.28 µM [inhibitor, single point]	–
C=CCn1c(SCc2nc3ccccc3nc2C)nnc1-c1ccoc1C	inconclusive: 6.57 µM [inhibitor, partial curve, poor fit]	–
Cc1ccc(C2CC(=O)NC(SCc3ccccc3)=C2C#N)cc1 (stereo not given)	inconclusive: 9.28 µM [inhibitor, partial curve, poor fit]	–
O=C(CNCc1ccco1)Nc1ccc(N2CCCCCC2)cc1	–	inactive: 16.8%

Structure (SMILES)	Potency	activity change, negative = inhibition
CC(C)CSc1nnc2[nH]c(=O)cc(N)n12	inconclusive: 5.22 µM [inhibitor, partial curve]	–
CCOc1ccc(-c2[nH]ncc2Oc2ccccc2OCC)c(O)c1	active: 5.86 µM	–
C[C@H]1O[C@@H](O[C@H]2[C@@H](O)C[C@H](O[C@H]3[C@@H](O)C[C@H](O[C@H]4CC[C@@]5(C)[C@H](CC[C@@H]6[C@@H]5C[C@@H](O)[C@]5(C)[C@@H](C7=CC(=O)OC7)CC[C@]65O)C4)O[C@@H]3C)O[C@@H]2C)C[C@H](O)[C@@H]1O	inactive and inconclusive: 15.1 µM [inhibitor, single point]	–
CCOC(=O)c1oc2ccccc2c1CN1CCN(c2ccccc2)CC1	inconclusive: 18.5 µM [inhibitor, single point]	–
O=c1c2ccccc2n(Cc2ccccc2F)c(=O)n1Cc1ccccc1F	inconclusive: 8.28 µM [inhibitor, partial curve, poor fit]	–
COC(=O)c1c(NC(=O)C2CCCCC2C(=O)O)sc2c1CCCCC2 (stereo not given)	–	inactive: -5.04%
Cc1ccc(NC(=O)C2CCCN(C3=NS(=O)(=O)c4ccccc43)C2)c(O)c1 (stereo not given)	active: 11.7 µM	–
O=C(Nc1ccc([N+](=O)[O-])cc1)c1ccc(S(=O)(=O)N2CCCC2)cc1	inconclusive: 0.586 µM [inhibitor, full curve]	–
Cc1ccsc1/C=N/NC(=O)c1ccc(Cn2cc(Br)cn2)o1	inconclusive: 18.5 µM [inhibitor, single point]	–
CCC(C)N1Cc2ccccc2C1=N (stereo not given)	inconclusive: 13.1 µM [inhibitor, single point]	–
CCOc1ccc(NS(=O)(=O)c2ccc(C(=O)NCc3ccncc3)cc2)cc1	inconclusive: 18.5 µM [inhibitor, single point]	–
COc1ccc2nc(NC(=O)c3ccc([N+](=O)[O-])o3)sc2c1	inconclusive: 18.5 µM [inhibitor, single point]	–
CN1CCCN(C(=O)c2cccc(Br)c2)CC1	–	inactive: -7.72%
COc1ccc(N2CCN(CCCNC(=O)C(=O)c3c(C)n(C)c4ccccc34)CC2)cc1	inconclusive: 9.28 µM [inhibitor, partial curve, poor fit]	–
Cc1cccc(N2CCN(C(=O)c3ccc(NS(=O)(=O)c4c(C)noc4C)cc3)CC2)c1C	inconclusive: 10.4 µM [inhibitor, single point]	–
CSCC[C@H](NC(=O)C(C)Oc1ccc(Cl)cc1)c1nc2ccccc2[nH]1 (stereo not given in full)	inconclusive: 8.28 µM [inhibitor, partial curve]	–
CC(=O)N1CCN(C(=O)CC2OC(=O)c3ccccc32)CC1 (stereo not given)	inconclusive: 11.7 µM [inhibitor, single point]	–
CCN(CC)C(=O)CC(c1cc(OC)c(OC)c(OC)c1)c1c(OC)cc(OC)c2c(-c3ccccc3)cc(=O)oc12 (stereo not given)	active: 4.65 µM	–
O=S1(=O)CCN(OCc2ccc(Cl)cc2)CC1	inconclusive: 0.415 µM [inhibitor, partial curve, poor fit]	–
c1ccc(-c2nnc3sc(-c4ccncc4)nn23)cc1	–	inactive: -25.8%
COc1ccc(CCNCC(O)COc2ccc(Cl)cc2)cc1OC (stereo not given)	inconclusive: 10.4 µM [inhibitor, single point]	–
CC(C)CN(CC(C)C)S(=O)(=O)N1CCC(C(=O)NCc2cccs2)CC1	inconclusive: 4.15 µM [inhibitor, full curve]	–

Structure (SMILES)	Potency	activity change, negative = inhibition
O=C(COc1ncnc2cc([N+](=O)[O-])ccc12)NC(=O)NC1CCCCC1	inconclusive: 14.7 µM [inhibitor, partial curve, poor fit]	–
CCc1ccc(S(=O)(=O)NC(=S)NC2CCCCC2)cc1	–	inactive: 30.9%
O=C(O)C1CCN(C(=O)c2scc3c2OCCO3)CC1	inconclusive: 0.738 µM [inhibitor, full curve, poor fit]	–
CCn1ccnc1C(O)(c1ccccc1)c1ccccc1	–	inactive: 2.73%
Nc1nonc1C(=O)N/N=C/c1ccc(-c2cccc(C(=O)O)c2)o1	–	inactive: 24.8%
O=C(Nc1nc(-c2ccccc2)cs1)c1ccc(S(=O)(=O)N2CCc3ccccc32)cc1	inconclusive: 1.85 µM [inhibitor, partial curve, poor fit]	–
CCCCn1c(N)c(N(CCOC)C(=O)c2ccc(-c3ccccc3)cc2)c(=O)[nH]c1=O	inconclusive: 13.1 µM [inhibitor, single point]	–
COc1ccc(-c2ccc(OC)c([C@H]3[C@H]4C=CC[C@@H](C)[C@@H]4C(=O)N3Cc3ccccc3)c2)cc1	inconclusive: 7.38 µM [inhibitor, partial curve]	–
COc1ccc(/C=N/N2CCN(c3ccccc3OC)CC2)cc1Br	–	inactive: 71.7%
O=C(CN1C(=O)CC(c2ccccc2)=Nc2ccccc21)NCc1ccco1	–	inactive: 5.66%
Cc1c(OC(C)C(=O)NCc2ccncc2)ccc2c3c(c(=O)oc12)CCCC3 (stereo not given)	inconclusive: 11.7 µM [inhibitor, partial curve]	–
CCCCc1ccc(NS(=O)(=O)c2cccc(C(=O)N3CCNC(=O)C3)c2)cc1	inconclusive: 14.7 µM [inhibitor, single point]	–
CCOC(=O)CSc1cccc2cccnc12	inconclusive: 13.1 µM [inhibitor, partial curve, poor fit]	–
c1ccc(Oc2nc(-c3ccccn3)nc3ccccc23)cc1	active: 1.65 µM	–
COc1cc2[nH]c(=S)nc(NC3CCCC3)c2cc1OC	inconclusive: 4.65 µM [inhibitor, partial curve, poor fit]	–
Cc1ccccc1NC(=S)NC1CCCC1	inconclusive: 13.1 µM [inhibitor, single point]	–
Cc1nc2cc(NC(=O)C3COc4ccccc4O3)ccc2s1 (stereo not given)	–	inactive: 114%
CC1=C(C(=O)Nc2ccccc2)C(c2ccc(Cl)cc2)n2c(s/c(=C/c3cccc(OCC(=O)O)c3)c2=O)=N1 (stereo not given)	active: 1.65 µM	–
Cc1nn(-c2ccccc2)c2c1C(c1ccc([N+](=O)[O-])cc1)N1C(=N2)C(=O)Nc2ccccc21 (stereo not given)	inconclusive: 16.5 µM [inhibitor, single point]	–
NC(=O)COC(=O)c1ccc(Cl)c(S(=O)(=O)N2CCCCCC2)c1	inconclusive: 0.0041 µM [inhibitor, full curve, poor fit]	–
CC1(C)Cc2c(sc(NC(=O)C(C)(C)C)c2C#N)C(C)(C)N1	inconclusive: 4.15 µM [inhibitor, single point]	–
